Test results published in the BET-seq Pho4 binding data (Le et al. 2018).
The other results are listed elsewhere or left out. These are noisy estimates, calculated here from bound and input reads.

biological target: T1, Pho4 (S. cerevisiae) (UniProt P07270); experiment: relative binding free energy (BET-seq); higher = weaker binding; conditions: reference: library average
T1 sequence: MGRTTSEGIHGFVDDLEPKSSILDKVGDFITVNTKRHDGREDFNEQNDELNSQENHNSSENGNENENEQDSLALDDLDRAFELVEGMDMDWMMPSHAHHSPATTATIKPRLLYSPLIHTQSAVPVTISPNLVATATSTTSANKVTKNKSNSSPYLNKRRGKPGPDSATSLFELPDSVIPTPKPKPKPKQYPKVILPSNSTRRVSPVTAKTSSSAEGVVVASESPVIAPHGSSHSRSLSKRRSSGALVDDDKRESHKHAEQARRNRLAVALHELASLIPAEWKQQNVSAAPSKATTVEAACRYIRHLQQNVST

Sequence	relative binding free energy
AGTGGCACGTGTTGAA	-0.11 kcal/mol
TGTAACACGTGTCGTG	-0.08 kcal/mol
TTGCGCACGTGTAGTG	-0.14 kcal/mol
GGCTTCACGTGCGCGG	0.11 kcal/mol
AGTGGCACGTGTTTGC	-0.05 kcal/mol
AAAGGCACGTGGTTGT	-0.16 kcal/mol
TAGTGCACGTGAAAAG	0.23 kcal/mol
TAGAGCACGTGAGGGA	0.13 kcal/mol
AGGGGCACGTGCAATT	-0.16 kcal/mol
TGGAACACGTGAGGCG	0.13 kcal/mol
GGGGACACGTGAGGAA	0.21 kcal/mol
GGGGGCACGTGTCGCA	-0.21 kcal/mol
TGGGCCACGTGATGTT	0.01 kcal/mol
TTAATCACGTGGGTTA	-0.08 kcal/mol
TAAGACACGTGGTTAT	-0.06 kcal/mol
CCATTCACGTGGGTGG	0.26 kcal/mol
ATGCGCACGTGTATGG	-0.11 kcal/mol
AGGGTCACGTGTGCAT	-0.04 kcal/mol
ATAATCACGTGTTTCT	0.15 kcal/mol
TGATGCACGTGGACGG	-0.12 kcal/mol
TTTTACACGTGCAGGA	0.07 kcal/mol
GGTGGCACGTGTCTAG	0.04 kcal/mol
GTGGGCACGTGACGTG	0.05 kcal/mol
GTTGTCACGTGCGGGC	0.14 kcal/mol
GAGGGCACGTGATTTA	0.16 kcal/mol
TGATACACGTGTCGGT	0.09 kcal/mol

Sequence	relative binding free energy
AGAAACACGTGTTGGT	0.17 kcal/mol
GGGCTCACGTGTCTGT	0.25 kcal/mol
GTTGTCACGTGGCGTA	0.02 kcal/mol
AACGTCACGTGCGGGG	0.03 kcal/mol
AAAGGCACGTGAAGGA	0.1 kcal/mol
ATGGGCACGTGGTCCG	-0.26 kcal/mol
ACGGTCACGTGTGGGG	0.05 kcal/mol
GGGTTCACGTGTAGTT	0.43 kcal/mol
GTTGTCACGTGTGGAG	0.19 kcal/mol
CGGGACACGTGTCGGG	0.1 kcal/mol
ATGCGCACGTGGTGGG	-0.15 kcal/mol
TGTTCCACGTGTGCGG	0.13 kcal/mol
TGTAACACGTGCTTTT	-0.13 kcal/mol
CGTGTCACGTGGGCGG	-0.15 kcal/mol
AGTAGCACGTGGTGGG	-0.14 kcal/mol
AGTCGCACGTGTTAGT	-0.08 kcal/mol
ATTTACACGTGAAGAG	0.17 kcal/mol
GTCTTCACGTGTTTCA	0.38 kcal/mol
GTAAGCACGTGAGGAT	0.09 kcal/mol
GGTGCCACGTGGAAAG	0.08 kcal/mol
TGGTTCACGTGCTAGT	0.15 kcal/mol
GGGGGCACGTGGTTGC	-0.22 kcal/mol
GGCGGCACGTGGGTAC	-0.22 kcal/mol
TGTACCACGTGGGGCT	-0.17 kcal/mol
AGGTTCACGTGCGGAG	0.18 kcal/mol
TTGTTCACGTGTTCGC	0.39 kcal/mol

Sequence	relative binding free energy
GGTTGCACGTGACTAG	0.17 kcal/mol
GCTGGCACGTGTGAGG	0.02 kcal/mol
GGTGGCACGTGTCGCT	0 kcal/mol
TATTTCACGTGTAGGC	0.3 kcal/mol
CGCGGCACGTGGGTAT	-0.26 kcal/mol
GAGTTCACGTGGTACT	0.24 kcal/mol
CTTATCACGTGGTGTG	0.12 kcal/mol
CTGTTCACGTGCTGTG	0.08 kcal/mol
TCGGTCACGTGCGTAT	0.03 kcal/mol
TTGTACACGTGTAGAC	0.21 kcal/mol
GGGTGCACGTGTGTTC	0.1 kcal/mol
TAGAACACGTGGGGGC	-0.06 kcal/mol
CGGGGCACGTGTGTGA	-0.05 kcal/mol
TTCGTCACGTGCGGGG	0.15 kcal/mol
CTTGTCACGTGTGTAA	0.19 kcal/mol
CGTTGCACGTGATTTG	0 kcal/mol
ATTCGCACGTGGGGTG	-0.15 kcal/mol
TGTAGCACGTGTTAGA	0.01 kcal/mol
GCGTGCACGTGACGGT	0.23 kcal/mol
TGGCTCACGTGGAGGA	0.14 kcal/mol
GTTGTCACGTGGGATT	0.18 kcal/mol
TGGTTCACGTGGATTC	0.4 kcal/mol
GGGAGCACGTGATGAT	0.16 kcal/mol
TGTAGCACGTGGGCCT	-0.22 kcal/mol
TTGTGCACGTGATGCA	0.08 kcal/mol
AGATACACGTGAAAGG	0.37 kcal/mol

Sequence	relative binding free energy
TTTGGCACGTGTTCAA	-0.08 kcal/mol
GTGAGCACGTGATGAG	0.14 kcal/mol
GGTTACACGTGGGACA	0.03 kcal/mol
CTTTTCACGTGTGCTA	0.27 kcal/mol
GTGTACACGTGTCGGA	0.14 kcal/mol
ATTAGCACGTGTGATT	0 kcal/mol
TGATACACGTGGAGGG	0 kcal/mol
GTTTCCACGTGGCGGT	0.09 kcal/mol
GTATGCACGTGGGTCA	-0.24 kcal/mol
TGGAGCACGTGGCCGT	-0.2 kcal/mol
TGAGACACGTGGAGGG	0.06 kcal/mol
TGACGCACGTGAGGTG	0.02 kcal/mol
TTCTACACGTGAGTGA	0.29 kcal/mol
GTATGCACGTGGTCTT	-0.11 kcal/mol
GATTACACGTGTGGGG	0.2 kcal/mol
GTGTTCACGTGATGTA	0.29 kcal/mol
TGCGTCACGTGGGCTA	-0.07 kcal/mol
TGTCGCACGTGGGACT	-0.17 kcal/mol
TGATGCACGTGTCCGT	-0.04 kcal/mol
TCCGGCACGTGAGAGG	0.23 kcal/mol
TGGAGCACGTGGTAGC	-0.07 kcal/mol
TACAGCACGTGTATGT	0 kcal/mol
AGTCTCACGTGCTGGT	0.17 kcal/mol
GTGCGCACGTGGGCTG	-0.2 kcal/mol
GGGGCCACGTGTCCGG	-0.06 kcal/mol
TTTTTCACGTGCTGGC	0.21 kcal/mol

Sequence	relative binding free energy
AAATTCACGTGTAGTA	0.33 kcal/mol
CATGTCACGTGGAATG	0.25 kcal/mol
TATGGCACGTGGGCGG	-0.23 kcal/mol
TTTATCACGTGAGCGG	0.19 kcal/mol
TTGCGCACGTGTAGAG	-0.16 kcal/mol
AGGCACACGTGCTGGG	-0.03 kcal/mol
AGAGGCACGTGTTTAT	-0.15 kcal/mol
TGTCACACGTGTATTG	0 kcal/mol
TGTTGCACGTGGTAGC	0.03 kcal/mol
TAGCGCACGTGTGGTG	-0.15 kcal/mol
GGGCACACGTGTGATA	0.25 kcal/mol
AGGTCCACGTGTGAGT	0.05 kcal/mol
TGGAGCACGTGGTATC	-0.2 kcal/mol
TTTCGCACGTGGTAGG	-0.11 kcal/mol
CTGTGCACGTGTTATT	-0.1 kcal/mol
ATTGCCACGTGAGAGG	0.2 kcal/mol
GTCAGCACGTGCGGTG	-0.14 kcal/mol
TATTTCACGTGCGTAA	0.06 kcal/mol
CTGGGCACGTGGAGCG	-0.24 kcal/mol
GTGTGCACGTGGGAGT	-0.15 kcal/mol
ATCTACACGTGTTATG	0.1 kcal/mol
GTGTTCACGTGCTTTC	0.37 kcal/mol
TTTACCACGTGGATTG	-0.08 kcal/mol
GGTGACACGTGAGTGG	0.23 kcal/mol
GACTTCACGTGGGAGT	0.35 kcal/mol
TAGTGCACGTGATTCT	0.18 kcal/mol

Sequence	relative binding free energy
TGATCCACGTGATTGT	0.12 kcal/mol
TGGGCCACGTGGTTCG	-0.05 kcal/mol
AGCTGCACGTGGAATG	0.01 kcal/mol
GATTACACGTGAGGGA	0.34 kcal/mol
TTGGTCACGTGTTGGG	0.14 kcal/mol
TGTTGCACGTGAGAGA	0.25 kcal/mol
CTGAGCACGTGGGTGA	-0.31 kcal/mol
AGATACACGTGGTTAA	0.09 kcal/mol
GGTTTCACGTGTTGCC	0.38 kcal/mol
GTTGCCACGTGGTAAG	-0.16 kcal/mol
TGGTACACGTGAGTCG	0.33 kcal/mol
TCGCGCACGTGGGAGG	-0.2 kcal/mol
GGGTACACGTGGCCGT	0.16 kcal/mol
GTAGCCACGTGTGTAG	-0.18 kcal/mol
AGGGGCACGTGGCTTA	-0.22 kcal/mol
AGTTTCACGTGTGGTA	0.26 kcal/mol
TGTTTCACGTGAAATC	0.51 kcal/mol
AGGTCCACGTGGGATT	0.08 kcal/mol
GGTGACACGTGTGGTA	0.15 kcal/mol
ATGTTCACGTGGGGCA	0.13 kcal/mol
TATATCACGTGCGTAG	0.1 kcal/mol
GGGGGCACGTGAGATT	0.25 kcal/mol
GAGGACACGTGTAGAG	0.15 kcal/mol
AATTCCACGTGGTGTT	-0.04 kcal/mol
ATTAACACGTGGTCGG	0.05 kcal/mol
AATGTCACGTGGAATG	0.08 kcal/mol

Sequence	relative binding free energy
TGGTCCACGTGTAAGG	0.24 kcal/mol
TTTATCACGTGACAGG	0.3 kcal/mol
CGGTGCACGTGTCGGG	-0.02 kcal/mol
GTTCACACGTGTTAGG	0.16 kcal/mol
TGGGACACGTGTGTCT	0.08 kcal/mol
TGAAGCACGTGTAATT	0.1 kcal/mol
AGATTCACGTGTTCAG	0.34 kcal/mol
ATACTCACGTGGTGGT	0.15 kcal/mol
AGGGACACGTGGCGTA	-0.16 kcal/mol
ATATTCACGTGAATGA	0.34 kcal/mol
TTGGTCACGTGTGAAA	0.27 kcal/mol
GTTTCCACGTGTTCTT	0.1 kcal/mol
TTTCACACGTGATTGA	0.31 kcal/mol
GTTCTCACGTGATATT	0.36 kcal/mol
TGGTCCACGTGAGTGT	0.16 kcal/mol
TGTGACACGTGGGAGA	-0.08 kcal/mol
TATCACACGTGGTTTT	0.17 kcal/mol
ACATGCACGTGAGGGT	0.04 kcal/mol
TGCATCACGTGGTTTA	0.09 kcal/mol
TTTGGCACGTGGTATA	-0.11 kcal/mol
GCCTACACGTGGGTGT	0.04 kcal/mol
TTGGCCACGTGTCTGG	-0.03 kcal/mol
AATTTCACGTGGTCGT	0.3 kcal/mol
AGAATCACGTGGGGGT	0.09 kcal/mol
TTTATCACGTGCGGAT	0.16 kcal/mol
TTTTCCACGTGGGATA	-0.07 kcal/mol

Sequence	relative binding free energy
ACGGGCACGTGGCTGG	-0.26 kcal/mol
TCGGTCACGTGTCGGG	0.16 kcal/mol
GGTGCCACGTGCGTTG	-0.23 kcal/mol
GATGCCACGTGGGCGG	-0.14 kcal/mol
GTCATCACGTGGGTGG	0.11 kcal/mol
ATAATCACGTGCTAGG	0.21 kcal/mol
TTTTACACGTGTGTGA	0.13 kcal/mol
ATTGACACGTGTATAG	0.06 kcal/mol
TCTTTCACGTGTGGTC	0.34 kcal/mol
GTATTCACGTGGCTAT	0.35 kcal/mol
AAATTCACGTGTTGTG	0.1 kcal/mol
AGTCTCACGTGAGGAG	0.3 kcal/mol
GATGTCACGTGGGTCG	0.04 kcal/mol
GTTGACACGTGTTTGT	0.1 kcal/mol
ATTAACACGTGTGTTC	0 kcal/mol
ATGGCCACGTGGTTGG	0 kcal/mol
GATGTCACGTGTAAGA	0.35 kcal/mol
AGGGACACGTGCGAGG	0 kcal/mol
CAGGGCACGTGTGGGA	-0.14 kcal/mol
ATACTCACGTGTGTGT	0.06 kcal/mol
AAGAGCACGTGTTGGG	-0.15 kcal/mol
GTAAGCACGTGATGTT	0.21 kcal/mol
ATAGGCACGTGAGGGC	0.11 kcal/mol
TAGGTCACGTGAAGTA	0.37 kcal/mol
GGAGTCACGTGCTGGA	0.24 kcal/mol
ATATGCACGTGGCGTA	-0.27 kcal/mol

Sequence	relative binding free energy
GTGGTCACGTGTTGTA	0.02 kcal/mol
ATGATCACGTGGGATT	0.12 kcal/mol
TTTTTCACGTGCGTAA	0.19 kcal/mol
GGTCACACGTGGATTT	0.16 kcal/mol
GTATGCACGTGTTGGG	0.06 kcal/mol
TGTCGCACGTGGGGCA	-0.2 kcal/mol
CTGTGCACGTGCAGTG	-0.14 kcal/mol
TTTAACACGTGTTTCG	-0.07 kcal/mol
TTTTGCACGTGGGAAG	-0.1 kcal/mol
ATGTTCACGTGGTTAA	0.2 kcal/mol
TGTCACACGTGTGTCG	0.29 kcal/mol
ATTTACACGTGCGGTC	0.26 kcal/mol
AAGGCCACGTGTTGAG	0.06 kcal/mol
GGAGGCACGTGGTGAG	-0.1 kcal/mol
ACATACACGTGGGTGG	0 kcal/mol
CAGTGCACGTGGTTGT	-0.05 kcal/mol
CATGTCACGTGGGGAT	-0.13 kcal/mol
CGGCGCACGTGGGGTG	-0.25 kcal/mol
TGTCCCACGTGTGAGT	0.17 kcal/mol
TGTTGCACGTGTATAG	-0.02 kcal/mol
ATTGTCACGTGTTTCA	-0.07 kcal/mol
GGGTTCACGTGGTATA	0.28 kcal/mol
